# Test results taken from PubChem BioAssay AID1745853 (National Center for Advancing Translational Sciences (NCATS), 2022).
# Where “and” joins values, the source holds several entries; their conditions need not be identical. Equal entries are not always repeated. The list shows a part of the results. Shown are side measurements of this screen, not its main read-out; they come without a call.
# Experiments:
# Assay in all cases: Primary Screen for Target Class Profiling of Small Molecule Inhibitors of Methyltransferases
# [1] = target: Glycine N-methyltransferase (Homo sapiens) (UniProt Q14749); settings: purified enzyme, MTase-Glo SAH luminescence; measured here: GNMT inhibition; at 40 µM; stronger effect = lower value
# Outline: (§1)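 Each enzyme was assayed with SAM and its substrate. SAH formation detected by MTase-Glo luminescence; single-point 40 uM screen[…].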
# [2] = target: Guanidinoacetate N-methyltransferase (Homo sapiens) (UniProt Q14353); settings: purified enzyme, MTase-Glo SAH luminescence; measured here: GAMT inhibition; at 40 µM; stronger effect = lower value
# Outline: as §1
# [3] = target: Histamine N-methyltransferase (Homo sapiens) (UniProt P50135); settings: purified enzyme, MTase-Glo SAH luminescence; measured here: HNMT inhibition; at 40 µM; stronger effect = lower value
# Outline: as §1
# [4] = target: Nicotinamide N-methyltransferase (Homo sapiens) (UniProt P40261); settings: purified enzyme, MTase-Glo SAH luminescence; measured here: NNMT inhibition; at 40 µM; stronger effect = lower value
# Outline: as §1
# [5] = target: Phenylethanolamine N-methyltransferase (Homo sapiens) (UniProt P11086); settings: purified enzyme, MTase-Glo SAH luminescence; measured here: PNMT inhibition; at 40 µM; stronger effect = lower value
# Outline: as §1
# On the % scale 0 is the no-effect control and ±100 the full control effect.
SMILES,"activity change, negative = inhibition [1]","activity change, negative = inhibition [2]","activity change, negative = inhibition [3]","activity change, negative = inhibition [4]","activity change, negative = inhibition [5]"
CCN(CC)Cc1ccc2cc(COC(=O)Nc3ccc(C(=O)NO)cc3)ccc2c1,-6.19% and -12.4%,-5.54%,-64.5% and -20.1%,-18.9% and -20.4%,-7.36% and 10.2%
O=C(CC1CCOCC1)N1CCN(c2ncccn2)CC1,-1.91%,-3.24%,-0.128%,-2.75%,-1.21%
O=S(=O)(c1ccc(Cl)c(-c2nnc(-c3ccccc3)o2)c1)N1CCN(c2ccccc2)CC1,15.1%,2.21%,12.3%,-0.396%,9.27%
COc1cccc(C(=O)COc2cc(O)c3c(=O)cc(-c4ccccc4)oc3c2)c1,-5.88%,3.74%,-2.88%,-2.38%,-6.16%
CC(C)c1cc2n(n1)CC(C)(C(=O)NC1CCCCCC1)N(Cc1cccc(F)c1)C2=O (stereo not given),4.32%,6.49%,8.63%,-8.29%,1.9%
O=C(CC[C@@H]1CNC(=O)[C@@H]2C[C@H](NC(=O)C3CC3)CN12)NCc1cccs1,-0.353%,-6.62%,-0.544%,-8.47%,0.376%
Nc1nc(Cl)nc2c1ncn2[C@@H]1O[C@H](COP(=O)(O)OP(=O)(O)OP(=O)(O)O)[C@@H](O)[C@H]1O,64.2%,168%,36%,85.7%,31.2%
O=C(O)[C@H](Cc1ccc(Nc2nccc3ccncc23)cc1)NC1=C(Br)C(=O)C12CCCCC2,-28.9%,-16.1%,-7.08%,-29.8%,-14.2%
CC1CCC(NC(=O)C2(C)Cn3c(cc4occc43)C(=O)N2CCCN2CCCCC2C)CC1 (stereo not given),2.88%,4.61%,-5.38%,6.11%,1.33%
CC(C)(C#N)c1ccc(N2C(=O)OCc3cnc4ccc(-c5cnc6ccccc6c5)cc4c32)cc1,-2.43%,8.26%,7.81%,-15.2%,2.22%
COc1ccc(CC(=O)NCc2ccccc2-c2ccccc2C(=O)NCCc2cccnc2)cc1,4.4%,6.21%,12.1%,-14.3%,-3.31%
CC(=O)NC1CCN(Cc2cn(-c3ccccc3F)nc2-c2cc(C)sc2C)C1 (stereo not given),-1.04%,-0.104%,1.58%,-7.01%,2.64%
O=C(Nc1ccc2c(N3CCCCC3)ncnc2c1)c1ccccc1C(F)(F)F,-36.3%,-29.8%,-68.3%,-30.6%,-17.4%
CCS(=O)(=O)N1CCC2(CC1)CC(N1CCN(C(C)C)CC1)CCO2 (stereo not given),-3.52%,0.125%,-4.05%,1.65%,3.08%
COc1ccc(-c2cc3n(n2)CC(C)(C(=O)NCc2ccccc2)N(c2cc(C)ccc2C)C3=O)cc1 (stereo not given),6.85%,0%,10.2%,7.26%,3.69%
O=C1CCCCC(C(=O)NCCc2ccncc2)N1 (stereo not given),-1.15%,-0.018%,-1.68%,-3.07%,-1.56%
CCc1ccc(CNC(=O)CCn2ccc3cc(S(=O)(=O)N4CCCC4)ccc32)cc1,-5.73%,0%,1.39%,-3.48%,1.19%
COC(=O)N1CCCN(c2nccc(Nc3ccc(C)cc3)n2)C1,-20.9%,-6.25%,-8.21%,-21.8%,-24.4%
CC(C)=CCC[C@](C)(O)[C@H]1CC[C@]2(C)[C@@H]1[C@H](O)CC1[C@@]3(C)CC[C@H](O)C(C)(C)[C@@H]3[C@@H](O[C@@H]3O[C@H](CO)[C@@H](O)[C@H](O)[C@H]3O[C@@H]3O[C@H](CO)[C@@H](O)[C@H](O)[C@H]3O)C[C@]12C (stereo not given in full),2.09%,-2.87%,9.96%,-14.8%,7.95%
COC(=O)C1=COC(OC2OC(CO)C(O)C(O)C2O)C2C(COC(=O)/C=C/c3ccc(O)c(O)c3)C(O)C(O)C12 (stereo not given),-0.368%,4.28%,5.56%,-9.37%,3.9%
COc1ccc(-c2cc3n(n2)CC(C)(C(=O)NCc2ccccc2)N(c2ccccc2C)C3=O)cc1 (stereo not given),3.3%,0%,5.04%,6.16%,-2.02%
c1ccc(-c2noc(-c3cncnc3NC3CCCCC3)n2)cc1,0.645%,-0.776%,1.97%,-2.06%,0.765%
c1ccc(N2CCC(Cn3ccnc3-c3cc4n(n3)CCCNC4)C2)cc1 (stereo not given),-25.5%,-15.6%,-46.1%,-23.6%,-23.5%
O=C(COc1ccccc1)NCCn1cccc1-c1nc(-c2ccc3c(c2)OCO3)no1,-4.91%,-6.16%,-4.7%,-12%,-3.77%
O=C(NC1CCN(c2cc(-c3ccc(Cl)cc3)[nH]n2)C1)c1c[nH]c2ccccc12 (stereo not given),-24.8%,-12.1%,-8.51%,-16%,-10.9%
C=C1[C@H]2CCC3[C@]4(C)CCC[C@@](C)(C(=O)O)C4CC[C@]3(C2)[C@H]1OC(C)=O (stereo not given in full),0.033%,2.63%,2.06%,-16.2%,-2.15%
CC(C)(CC(=O)O)CC(=O)N1Cc2[nH]cnc2C[C@H]1C(=O)NC1CCCCC1,-3.18%,-2.48%,-0.208%,-4.62%,-3.24%
O=C1c2ccc(Nc3ccc(F)cc3F)cc2CCc2ccc(OCC(O)CO)cc21 (stereo not given),-20.8%,-0.034%,-4.85%,-12%,0.334%
COc1cc(F)c(-c2nccn2CC(O)c2ccccc2)cc1OC (stereo not given),-1.67%,-1.46%,-22.5%,-10.2%,-4.37%
